Reference: PubChem BioAssay AID651820 (National Center for Advancing Translational Sciences (NCATS), 2012)
Screen size: about 340,000 compounds; about 12,000 (3.5%) were called active. The shares of active, inactive and inconclusive entries below differ from those in the screen. Calls come from the whole dose curve; as a rule, active = well fitted inhibition curve with a large enough effect; inconclusive = small, poorly fitted or top-dose-only effect, or another doubt; inactive = no such curve, though single readings can be large or run the other way. Potencies of inconclusive entries are left out as doubtful fits. Where a structure was tested more than once in an assay, its records may differ in their call.

Experiment: qHTS Assay for Inhibitors of Hepatitis C Virus (HCV)
Settings: Huh7.5.1 HCVcc-Cre (HCVcc is cell-culture hepatitis C virus) infection, luciferase reporter, 44 h; activity change, negative = inhibition: at 41.8 µM (top of the series)
Procedure, shortened: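 HCVcc-Cre virus at an moi near 0.5 was added right after compound to cells cultured 4 h from seeding (1,000 cells/well). Luciferase activity was determined 44 h later, 15 min after substrate addition at RT.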
% is set by controls: 0 for no effect and ±100 for the full control effect; potency is the fitted concentration of half-maximal effect; tags give direction and shape of the fitted curve.

Question: Which Potency does the source give for `CC#CC(=O)N1CCC(CCC(=O)N(C)Cc2ccccc2)CC1` here?
Answer: The Potency was “inactive”.

Question: Which Potency does the source give for `COc1ccc(C(=O)N/C(=C\c2cn(S(=O)(=O)N(C)C)c3ccccc23)C(=O)NCCCN2CCOCC2)cc1` here?
Answer: The Potency was “inactive”.

Question: For `COc1ccc(-n2cc(CNC(C)c3ccncn3)c(-c3cccc(F)c3)n2)cc1` (stereo not given), which Potency is on record?
Answer: Its Potency is “inactive”.

Question: For `Cc1nn(-c2ccccc2)c(N2CCCC2)c1/C=N/NC(=S)Nc1ccccc1C(F)(F)F`, which Potency is on record?
Answer: The Potency was inconclusive [inhibitor, partial curve].

Question: Which Potency does the source give for `Nc1c(C(=O)CSc2nc(-c3ccccc3)cs2)c(=O)[nH]c(=O)n1C1CC1` here?
Answer: The Potency was inconclusive [inhibitor, partial curve].

Question: With `N=C(N)c1ccc(OCCCCCOc2ccc(C(=N)N)cc2)cc1` as the compound, how does the Potency read?
Answer: The Potency was active: 2.24 µM.

Question: Which Potency does the source give for `Cc1ccc(NC(=O)COC(=O)c2c(-c3ccccc3)noc2C)cc1` here?
Answer: The Potency was inconclusive [inhibitor, partial curve].

Question: With `CC1(C)C[C@H]2C=C(C=O)[C@]3(C=O)C[C@]3(C)[C@H]2C1` as the compound, how does the Potency read?
Answer: Its Potency is active: 3.16 µM.

Question: With `C[C@H](CO)N1C[C@H](C)[C@@H](CN(C)C(=O)Nc2ccc(C(F)(F)F)cc2)Oc2ccc(NC(=O)Nc3ccc(C(F)(F)F)cc3)cc2C1=O` as the compound, how does the Potency read?
Answer: The Potency was inconclusive [inhibitor, single point].

Question: With `O=C(OC[C@H]1O[C@@H](OC(=O)c2cc(O)c(O)c(OC(=O)c3cc(O)c(O)c(O)c3)c2)[C@H](OC(=O)c2cc(O)c(O)c(OC(=O)c3cc(O)c(O)c(O)c3)c2)[C@@H](OC(=O)c2cc(O)c(O)c(OC(=O)c3cc(O)c(O)c(O)c3)c2)[C@@H]1OC(=O)c1cc(O)c(O)c(OC(=O)c2cc(O)c(O)c(O)c2)c1)c1cc(O)c(O)c(OC(=O)c2cc(O)c(O)c(O)c2)c1` as the compound, how does the Potency read?
Answer: Its Potency is active: 11.2 µM.

Question: For `Oc1ccc(N=C/C=C/c2cccc(Br)c2)cc1-c1nc2ccccc2s1`, which Potency is on record?
Answer: Its Potency is inconclusive [inhibitor, partial curve].

Question: For `COc1ccc(-c2nn(-c3ccccc3)cc2C(=O)Nc2nc(CC(C)=O)ns2)cc1`, which Potency is on record?
Answer: Its Potency is inconclusive [inhibitor, partial curve].

Question: Which Potency does the source give for `O=C(c1ccc(OC(F)(F)F)cc1)c1ncc[nH]1` here?
Answer: Its Potency is “inactive”.

Question: Which Potency does the source give for `CCCCCCCNC(=O)C1(CC2CC(c3cccc(Br)c3)=NO2)CCN(C(=O)CCCCCBr)CC1` (stereo not given) here?
Answer: The Potency was inconclusive [inhibitor, partial curve].

Question: Which Potency does the source give for `CCOC(=O)c1cn(CC)c2cc(N3CCCCC3)c(F)cc2c1=O` here?
Answer: Its Potency is inconclusive [inhibitor, single point].

Question: Which Potency does the source give for `COc1cc(C(=O)OCC(=O)Nc2ccccc2C(=O)NC2CC2)c([N+](=O)[O-])cc1OC` here?
Answer: The Potency was inconclusive [inhibitor, partial curve].

Question: With `S=c1[nH]nc(-c2cccs2)n1/N=C/c1cn(-c2ccccc2)nc1-c1cccs1` as the compound, how does the activity change, negative = inhibition read?
Answer: Its activity change, negative = inhibition is inconclusive: -30.1% [inhibitor].

Question: For `Cc1nc2c(sc(=S)n2Cc2ccco2)c(=O)n1CC(=O)Nc1ccccc1`, which Potency is on record?
Answer: The Potency was inconclusive [inhibitor, partial curve].

Question: Which Potency does the source give for `COc1cc(/C=N/NC(N)=O)cc(Br)c1OCc1ccc(C)cc1` here?
Answer: Its Potency is “inactive”.

Question: With `c1ccc2oc(Cc3ccc(Cc4nc5ccccc5o4)cc3)nc2c1` as the compound, how does the Potency read?
Answer: Its Potency is inconclusive [inhibitor, single point].

Question: With `CCn1cnc2scc(-c3ccc(C)c(C)c3)c2c1=O` as the compound, how does the Potency read?
Answer: Its Potency is inconclusive [inhibitor, single point].

Question: With `CCCN(CC(=O)Nc1ccc(F)c(F)c1F)C(=O)Cc1ccc(S(=O)(=O)N2CCOCC2)s1` as the compound, how does the Potency read?
Answer: Its Potency is inconclusive [inhibitor, single point].

Question: With `CCCn1c(SCC(=O)Nc2nc3c(s2)CCCC3)nc2c1c(=O)n(C)c(=O)n2C` as the compound, how does the Potency read?
Answer: The Potency was inconclusive [inhibitor, single point].

Question: Which Potency does the source give for `CC(=O)Nc1ccc(S(=O)(=O)Nc2ccccc2C(=O)N2CCCCCC2)cc1` here?
Answer: The Potency was “inactive”.

Question: With `CC(C)N1C(=O)CCC1C(=O)N1CCN(c2ccccn2)CC1` (stereo not given) as the compound, how does the Potency read?
Answer: Its Potency is inconclusive [inhibitor, partial curve, poor fit].

Question: For `COc1cc(Cl)ccc1NC(=S)N(CCN1CCOCC1)C1CCN(C(C)=O)CC1`, which Potency is on record?
Answer: Its Potency is “inactive”.

Question: For `CCC(=O)N1CCCc2cc(S(=O)(=O)N3CCN(c4ccccc4F)CC3)ccc21`, which Potency is on record?
Answer: Its Potency is active: 12.6 µM.

Question: With `CC(=O)c1c(C)[nH]c(C(=O)COc2cc(C)cc(C)c2)c1C` as the compound, how does the Potency read?
Answer: Its Potency is inconclusive [inhibitor, full curve].

Question: With `CCCNCc1cc(Br)ccc1OCC(=O)NCCc1ccccc1` as the compound, how does the Potency read?
Answer: Its Potency is inconclusive [inhibitor, single point].

Question: For `Cc1ccc(NS(=O)(=O)c2ccc(-c3coc(C)n3)cc2)c(C)c1`, which Potency is on record?
Answer: The Potency was active: 11.2 µM.

Question: Which Potency does the source give for `Cn1nnc2cc(C(=O)N3CCC(c4ccccc4)C3)ccc21` (stereo not given) here?
Answer: The Potency was “inactive”.

Question: For `CCOc1cc(/C=N\Nc2ncc(F)c(N3CCOCC3)n2)ccc1Oc1nc(Cl)ncc1F`, which Potency is on record?
Answer: Its Potency is active: 10 µM.

Question: Which Potency does the source give for `Cc1ccc(CCNC(=O)c2nn(C)c3c2CS(=O)(=O)c2ccccc2-3)cc1` here?
Answer: The Potency was inconclusive [inhibitor, partial curve].

Question: With `COc1ccc(C(c2nnnn2C2CCCCC2)N2CCN(c3ccccc3)CC2)cc1` (stereo not given) as the compound, how does the Potency read?
Answer: The Potency was “inactive”.

Question: For `O=c1[nH]c(=O)n(C(c2ccccc2)(c2ccccc2)c2ccccc2)cc1N(CCO)CCO`, which Potency is on record?
Answer: The Potency was “inactive”.

Question: For `O=c1oc2c(CN3CCCCC3)c(O)ccc2cc1-c1nc2ccccc2[nH]1`, which Potency is on record?
Answer: Its Potency is “inactive”.

Question: Which Potency does the source give for `CC(C)OC(=O)c1c(NS(=O)(=O)c2ccccc2)sc2c1CCCC2` here?
Answer: Its Potency is inconclusive [inhibitor, single point].

Question: For `COc1ccc(CNC(=O)Cc2ccc(-c3ccccc3)cc2)cc1OC`, which Potency is on record?
Answer: Its Potency is inconclusive [inhibitor, partial curve].

Question: For `Cc1ccc(C(NC(=O)CN2C(=O)NC3(CCCC3)C2=O)c2ccccc2)cc1` (stereo not given), which Potency is on record?
Answer: The Potency was inconclusive [inhibitor, single point].

Question: Which Potency does the source give for `N#Cc1c(Nc2ccc(F)cc2)sc(C(=O)c2ccccc2)c1N` here?
Answer: The Potency was inconclusive [inhibitor, partial curve].

Question: With `CCOc1ccc(CCNC(=O)Cn2ccc3cc(S(=O)(=O)N4CCCC4)ccc32)cc1` as the compound, how does the Potency read?
Answer: Its Potency is inconclusive [inhibitor, single point].

Question: With `Cc1cc(C)c(S(=O)(=O)/N=C2\C=C(Nc3ccc(C(=O)O)cc3)C(=O)c3ccccc32)c(C)c1` as the compound, how does the Potency read?
Answer: The Potency was inconclusive [inhibitor, single point].

Question: For `c1ccc(-c2cc3nccc(-c4ccccn4)n3n2)cc1`, which Potency is on record?
Answer: Its Potency is inconclusive [inhibitor, partial curve].

Question: Which Potency does the source give for `COc1ccc(-c2nnn(CC(=O)N(CC(=O)NC3CCCC3)c3cccc(C)c3)n2)cc1OC` here?
Answer: Its Potency is inconclusive [inhibitor, partial curve].

Question: For `C[C@]12CCC(=O)C[C@@H]1CC[C@@H]1[C@@H]2CC[C@]2(C)[C@@H](O)CC[C@@H]12`, which Potency is on record?
Answer: Its Potency is “inactive”.

Question: With `CC(=O)Nc1sc2c(c1C(c1cccc(Cl)c1)N1CCN(CCO)CC1)CCCC2` (stereo not given) as the compound, how does the Potency read?
Answer: The Potency was “inactive”.

Question: With `COC(=O)Cc1n[nH]c(=S)[nH]c1=O` as the compound, how does the Potency read?
Answer: Its Potency is inconclusive [inhibitor, single point].

Question: For `CN(C)S(=O)(=O)Oc1ccsc1C(=O)Nc1ccc(C(F)(F)F)cc1`, which activity change, negative = inhibition is on record?
Answer: The activity change, negative = inhibition was inconclusive: -38.1% [inhibitor].

Question: Which Potency does the source give for `CCNC(=S)NNC(=O)c1csc2ccccc12` here?
Answer: Its Potency is inconclusive [inhibitor, single point].

Question: For `CCCCNC(=O)c1cc2c(=O)n(CC)c3ccccc3c2s1`, which Potency is on record?
Answer: The Potency was inconclusive [inhibitor, partial curve].

Question: With `CC(=O)N1CCN(S(=O)(=O)c2cccc(C(=O)OCc3ccc(C(C)(C)C)cc3)c2)CC1` as the compound, how does the Potency read?
Answer: Its Potency is inconclusive [inhibitor, single point].

Question: With `COc1ccc(CC(NC(C)=O)C(=O)NC2CCN(S(=O)(=O)c3cccc4ccccc34)CC2)cc1OC` (stereo not given) as the compound, how does the Potency read?
Answer: The Potency was inconclusive [inhibitor, partial curve].

Question: For `NC(=O)c1nsc(C(=O)N(CC(=O)NC2CCCC2)c2cccc(C(F)(F)F)c2)c1N`, which Potency is on record?
Answer: Its Potency is inconclusive [inhibitor, partial curve].

Question: For `O=C(NCCOc1ccccc1Cl)C(=O)c1c[nH]c2ccccc12`, which Potency is on record?
Answer: Its Potency is “inactive”.

Question: With `Cc1noc(C)c1COc1cccc(C(=O)Nc2ccc3c(c2)OCO3)c1` as the compound, how does the Potency read?
Answer: The Potency was “inactive”.

Question: Which Potency does the source give for `CN(C)C(CNC(=O)c1cc(S(=O)(=O)N(C)c2ccc(F)cc2)ccc1Cl)c1ccco1` (stereo not given) here?
Answer: The Potency was inconclusive [inhibitor, partial curve].

Question: With `CCOP(=S)(OCC)SCC(=O)NC(C)(CC)C(=O)O` (stereo not given) as the compound, how does the Potency read?
Answer: The Potency was “inactive”.

Question: With `COc1ccc(CNC(=O)COC(=O)c2ccc3ncsc3c2)cc1OC` as the compound, how does the Potency read?
Answer: The Potency was inconclusive [inhibitor, partial curve].

Question: With `Cc1cccc(NC(=S)NC(=O)c2cccs2)n1` as the compound, how does the Potency read?
Answer: Its Potency is inconclusive [inhibitor, single point].

Question: With `CC12CC(=O)C3C(CCC4=CC(=O)CCC43C)C1CC=C2CC(=O)O` (stereo not given) as the compound, how does the Potency read?
Answer: The Potency was “inactive”.

Question: With `CCNc1nc(CSc2ccccc2)nc2sc(C)c(C)c12` as the compound, how does the Potency read?
Answer: The Potency was inconclusive [inhibitor, partial curve, poor fit].

Question: With `CC(C)C(=O)N1CCC(c2nc(-c3ccc(S(=O)(=O)N4CCCC4)cc3)no2)CC1` as the compound, how does the Potency read?
Answer: The Potency was inconclusive [inhibitor, single point].

Question: Which Potency does the source give for `O=C(CCCCCCCCC(=O)N1CCCCC1)N1CCCCC1` here?
Answer: Its Potency is inconclusive [inhibitor, single point].

Question: Which Potency does the source give for `Cc1ccc(C(=O)N2CCN(c3ccc([N+](=O)[O-])c(NCc4ccco4)c3)CC2)cc1` here?
Answer: The Potency was inconclusive [inhibitor, partial curve].

Question: For `COc1ccc(-c2ocnc2C(=O)Nc2ccccc2N2CCCCC2)cc1`, which Potency is on record?
Answer: Its Potency is inconclusive [inhibitor, single point].
